Reference: publication PMC4336329 (PLoS ONE, 2015)
The whole screen tested about 310,000 compounds, of which about 2,200 (0.71%) showed an effect of 50% or more. Effects have a minus sign here. The list shows a part of the results.

molecular target: human ether-à-go-go-related gene (hERG) potassium channel (human, UniProt Q12809); test: primary screen, population patch clamp on CHO cells stably expressing hERG
Sequence (Q12809 whole entry, looked up): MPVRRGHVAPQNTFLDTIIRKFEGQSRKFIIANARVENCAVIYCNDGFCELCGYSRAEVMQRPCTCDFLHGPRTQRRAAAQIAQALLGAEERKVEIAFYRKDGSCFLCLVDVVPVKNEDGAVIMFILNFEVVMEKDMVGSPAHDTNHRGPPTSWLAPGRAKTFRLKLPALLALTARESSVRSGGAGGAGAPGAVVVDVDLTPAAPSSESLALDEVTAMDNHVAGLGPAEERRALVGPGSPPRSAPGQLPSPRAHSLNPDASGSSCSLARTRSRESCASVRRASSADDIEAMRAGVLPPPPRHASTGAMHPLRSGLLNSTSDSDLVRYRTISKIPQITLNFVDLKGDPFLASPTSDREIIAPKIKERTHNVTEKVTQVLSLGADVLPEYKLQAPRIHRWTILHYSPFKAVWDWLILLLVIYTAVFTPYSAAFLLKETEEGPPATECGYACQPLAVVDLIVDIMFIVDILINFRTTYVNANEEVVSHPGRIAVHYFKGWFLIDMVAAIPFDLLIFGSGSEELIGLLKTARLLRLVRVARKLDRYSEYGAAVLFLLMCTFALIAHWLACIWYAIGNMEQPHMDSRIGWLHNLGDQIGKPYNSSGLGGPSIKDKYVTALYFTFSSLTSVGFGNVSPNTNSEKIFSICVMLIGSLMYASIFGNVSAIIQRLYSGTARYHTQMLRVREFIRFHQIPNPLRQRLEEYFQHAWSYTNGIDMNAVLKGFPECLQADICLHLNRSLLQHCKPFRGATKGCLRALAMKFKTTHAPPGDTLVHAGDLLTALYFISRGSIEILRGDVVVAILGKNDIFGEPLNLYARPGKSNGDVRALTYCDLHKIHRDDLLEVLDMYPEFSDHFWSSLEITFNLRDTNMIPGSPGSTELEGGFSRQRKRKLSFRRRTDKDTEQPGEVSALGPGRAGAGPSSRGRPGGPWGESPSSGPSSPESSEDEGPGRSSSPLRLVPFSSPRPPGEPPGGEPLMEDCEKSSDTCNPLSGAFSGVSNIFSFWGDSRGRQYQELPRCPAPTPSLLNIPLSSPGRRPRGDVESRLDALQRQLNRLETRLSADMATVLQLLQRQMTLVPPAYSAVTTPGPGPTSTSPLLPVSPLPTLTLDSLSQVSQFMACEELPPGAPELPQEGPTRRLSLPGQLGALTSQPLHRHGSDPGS

Row | Compound | hERG current change (%, negative = inhibition) at 1uM
1 | CCC(=O)Nc1nnc(-c2ccc(Cl)s2)o1 | 15.9%
2 | Cc1cccc(NC(=O)CNC(=O)c2ccc(-n3cncn3)c([N+](=O)[O-])c2)c1C | -9.45%
3 | COCCCNC(=O)CCc1nc(-c2ccccc2)no1 | 8.55%
4 | Cc1ccc(Cn2c(CCNc3nc(-c4ccc(C)cc4)cs3)nc3cc(C(=O)NCCCO)ccc32)cc1 | 9.5%
5 | O=C(NCc1ccccc1C(F)(F)F)C12CN(Cc3ccccc3)CC1C(c1ccc([N+](=O)[O-])cc1)=NO2 (stereo not drawn) | 5.46%
6 | CCCCCc1nc2ccccc2c(=O)n1N | 13.4%
7 | NC(=O)C1CCN(C(=O)Cc2ccc([N+](=O)[O-])cc2)CC1 | 4.39%
8 | O=C1NC(=O)N(c2ccccc2F)C(=O)/C1=C/c1cn(CC(=O)N2CCOCC2)c2ccccc12 | 8.85%
9 | Cc1ccccc1NS(=O)(=O)c1ccc(C(=O)N2CCCCCCC2)cc1 | -3.77%
10 | S=c1nc(-c2sccc2OCc2ccc(Cl)cc2Cl)[nH][nH]1 | 15.3%
11 | COc1ccc2cc(CCC(C)=O)ccc2c1 | 15.3%
12 | Cc1ccc(N)c(C(=O)c2ccccc2)c1 | -8.11%
13 | CC(C)CSc1ncc(-c2cccc(C(F)(F)F)c2)cn1 | -6.24%
14 | COc1ccc2cc(C(=O)Nc3ccc(Cl)cc3)sc(=O)c2c1OC | 12.7%
15 | Cc1nc2c(C)cccc2cc1C(=O)N/N=C/c1ccc(C(=O)O)cc1 | 9.91%
16 | N#Cc1c(-c2ccccc2)[nH]c(=S)[nH]c1=O | 5.12%
17 | O=C(N/N=C/c1ccc([N+](=O)[O-])o1)c1cc(-c2cccc(Br)c2)nc2ccccc12 | 4.42%
18 | CC(=O)n1nc(-c2cccnc2)nc1NCc1cccs1 | 11%
19 | CC(C)C(OC(=O)CCC(=O)Nc1nccs1)C(=O)NC1CCCCC1 (stereo not drawn) | 17.2%
20 | COc1ccc(S(=O)(=O)N2CCCCC2)cc1NC(=O)CN(C)C1CCCCC1 | 4.72%
21 | COc1ccccc1/C=C1\SC(N2CCC(C)CC2)=NC1=O | 13.3%
22 | Cc1c(NC2=NC3(CCCCC3)Cc3ccccc32)c(=O)n(C)n1-c1ccccc1 | 0.156%
23 | COc1cccc(C(=O)Nc2cc(NC(=O)c3cccs3)ccc2C)c1OC | 1.91%

Row | Compound | hERG current change (%, negative = inhibition) at 1uM
24 | CCC(CC)NC(=O)c1ccc2nc[nH]c2c1 | 11%
25 | CC(C)Sc1n[nH]c(=O)n1-c1ccccc1 | 9%
26 | O=C(O)CC1(c2ccccc2)C(=O)c2ccccc2C1=O | 13.1%
27 | CCCCCC1CCC(C(=O)NCCN2CCOCC2)CC1 (stereo not drawn) | 7.07%
28 | CCCCCn1c(CN2CCN(CCO)CC2)nc2c1c(=O)n(C)c(=O)n2C | 7.46%
29 | COc1ccc(S(=O)(=O)N2Cc3ccccc3CC2C(=O)Nc2nccs2)cc1 (stereo not drawn) | -7.54%
30 | CCOC(=O)N1CCN(C(=O)CS(=O)Cc2nc(-c3ccc(C)cc3)oc2C)CC1 (stereo not drawn) | 11.8%
31 | COc1ccc2nc(SCC(=O)NC3(C#N)CCCCC3)[nH]c2c1 | 12.9%
32 | CCOc1ccccc1NC(=O)C1CCN(C(=O)C2CC(=O)N(c3ccc(C)cc3)C2)CC1 (stereo not drawn) | 10.3%
33 | O=C1CN(C(=O)c2ccccc2F)C(c2ccccc2)c2cc(Cl)ccc2N1 (stereo not drawn) | -9.44%
34 | CC1CCN(c2nncc3ccccc23)CC1 | 7.52%
35 | CN(C)c1ccc([N+](=O)[O-])cc1C(=O)NCC(c1ccco1)N(C)C (stereo not drawn) | 14.8%
36 | Cc1ccc(C(=O)N/N=C/c2cccc3ccccc23)cn1 | 12.8%
37 | Cl.O=C(CCN1CCC(c2ccccc2)C1)c1cccs1 (stereo not drawn) | -13.5%
38 | CC(/C=C/c1ccc2c(c1)OCO2)=N/NC(=O)c1cccnc1 | 1.59%
39 | COc1ccc(CNc2cc(C)ccn2)cc1 | 9.04%
40 | Cc1ccc(CNC(=O)[C@H](C)N2C(=O)N3CCc4c([nH]c5ccccc45)[C@@]3(C)C2=O)cc1 | 11.3%
41 | O=C(CSc1ccccc1C(=O)O)NCc1ccco1 | 10.5%
42 | O=C(Nc1ccccc1C(F)(F)F)N1CCN(c2ccccn2)CC1 | 7.11%
43 | O=C(Cc1ccccc1)Nc1cc(Cl)ccc1Sc1ccccc1 | 10.8%
44 | Cc1nc2ccccc2c(=O)n1NC(=O)c1ccccc1[N+](=O)[O-] | 8%
45 | COc1ccc(NC2c3ccccc3C(=O)N2c2ccccn2)cc1Cl (stereo not drawn) | 0.441%
